Assay results: PubChem BioAssay AID360 (National Center for Advancing Translational Sciences (NCATS), 2006)
The whole screen tested about 48,000 compounds, of which about 550 (1.1%) were called active. Another 4% or so got no clear call; they are omitted. Cut-off read from the data, not from the text of the source: active = potency below about 15 µM; inconclusive = mostly about 16 µM to 33 µM; inactive = weaker than that. Some of the results follow.

Target: Lysosomal acid glucosylceramidase (Homo sapiens) (UniProt P04062)
Sequence of UniProt P04062 (P04062 whole entry, looked up): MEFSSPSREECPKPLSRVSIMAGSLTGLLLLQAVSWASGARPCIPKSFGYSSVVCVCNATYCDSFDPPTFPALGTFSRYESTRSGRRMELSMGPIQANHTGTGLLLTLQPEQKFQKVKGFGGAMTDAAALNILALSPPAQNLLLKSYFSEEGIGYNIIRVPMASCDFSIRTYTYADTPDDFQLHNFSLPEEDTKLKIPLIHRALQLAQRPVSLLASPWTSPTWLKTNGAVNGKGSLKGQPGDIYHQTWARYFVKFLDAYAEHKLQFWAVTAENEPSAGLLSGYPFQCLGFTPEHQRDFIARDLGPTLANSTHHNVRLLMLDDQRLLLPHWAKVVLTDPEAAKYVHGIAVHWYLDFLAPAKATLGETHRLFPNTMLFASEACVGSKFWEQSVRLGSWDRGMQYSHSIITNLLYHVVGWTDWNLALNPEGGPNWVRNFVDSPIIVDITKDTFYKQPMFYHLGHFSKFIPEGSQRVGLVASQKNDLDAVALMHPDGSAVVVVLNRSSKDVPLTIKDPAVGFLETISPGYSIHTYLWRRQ
Experiment: Glucocerebrosidase;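 note: the screen sought inhibitors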
Details: purified enzyme, resorufin glucoside fluorescence (screen aimed at inhibitors), 20 min
Method in brief: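 Compounds titrated against 0.2 nM normal enzyme, 30 uM resorufin beta-D-glucopyranoside substrate, citrate/phosphate buffer with taurocholate and tween-20, pH 5.9. Reaction ran 20 min at room temperature; fluorescence (Ex 548/Em 600) gave AC50.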
Potency is the fitted concentration of half-maximal effect.

SMILES | Potency
Cc1cccc(-n2ncc3c(N)ncnc32)c1 | inactive: > 76.9 µM
COc1ccc(OC)c(N(CC(=O)N2CCCC2)S(=O)(=O)c2ccc(OC)c(OC)c2)c1 | inactive: > 76.9 µM
CC(=O)Nc1ccc(NC(=O)CN(c2ccccc2Cl)S(C)(=O)=O)cc1 | inactive: > 76.9 µM
Cc1ccc(-c2ccc(OCC(=O)N3CCOCC3)cc2)cc1 | inactive: > 76.9 µM
CCOC(=O)c1c(-c2ccco2)csc1N | inactive: > 76.9 µM
CC(=O)Oc1ccc(-c2nc(-c3cccnc3)no2)cc1 | inactive: > 76.9 µM
CC(C)C(OC(=O)c1ccco1)C(=O)NCc1ccccc1 (stereo unspecified) | inactive
COc1cccc2sc(N3CCN(c4nc5ccccc5s4)CC3)nc12 | inactive: > 76.9 µM
CC(OC(=O)c1cc2sccc2n1C)C(=O)NCC1CCCO1 (stereo unspecified) | inactive: > 76.9 µM
CCSc1nnc(-c2ccc(S(=O)(=O)N3CCCC3)cc2)n1C | inactive: > 76.9 µM
CCC1CCCCN1C1Sc2ccc(C(=O)OC)cc2NC1=O (stereo unspecified) | inactive: > 76.9 µM
Cc1cc(C)nc(N(C#N)CC(=O)c2ccccc2)n1 | inactive: > 76.9 µM
O=C1CSC(c2ccccn2)N1c1cccc(Cl)c1 (stereo unspecified) | inactive: > 76.9 µM
COC(=O)C1CCN(C(=O)C2CCCCC2)CC1 | inactive: > 76.9 µM
CCC(=O)N1CCc2cc(S(=O)(=O)CCC(=O)Nc3cccc(F)c3)ccc21 | inactive: > 76.9 µM
CCOC(=O)C1CCN(C(=O)CN(Cc2ccccc2)S(C)(=O)=O)CC1 | inactive: > 76.9 µM
O=C(NCC(=O)N(Cc1ccco1)C(C(=O)NC1CCCC1)c1cccnc1)c1cccs1 (stereo unspecified) | inactive: > 76.9 µM
CCC(=O)NCc1nc2ccccc2n1Cc1ccccc1F | inactive: > 76.9 µM
CC(C)(C)c1csc(NC(=O)Cn2c(=O)oc3ccccc32)n1 | inactive: > 76.9 µM
CCOc1ccc(Cc2nnc(N)s2)cc1OCC | inactive: > 76.9 µM
Cc1ccc(C(=O)c2cn[nH]c2-c2cc(Cl)ccc2O)cc1 | inactive: > 76.9 µM

SMILES | Potency
Cc1nc2ccccc2c2c1C(=O)N(C(C)C)C2=O | inactive: > 76.9 µM
Cc1cc(C(=O)OCC(=O)N2CC(=O)Nc3ccccc32)no1 | inactive: > 76.9 µM
CN(c1ccc(C(=O)Nc2ccccc2C(F)(F)F)cc1)S(C)(=O)=O | inactive: > 76.9 µM
Cc1noc(C)c1S(=O)(=O)N1CCCC(C(=O)Nc2ccc(Cl)cn2)C1 (stereo unspecified) | inactive: > 76.9 µM
O=C(O)C1C2CCC(C2)C1C(=O)Nc1cc(F)ccc1F (stereo unspecified) | inactive: > 76.9 µM
COc1cc(C(Nc2ccccn2)c2ccc3ccc(C)nc3c2O)cc(OC)c1O (stereo unspecified) | inactive: > 76.9 µM
CN(c1nc2c(c(=O)n(C)c(=O)n2C)n1CC(=O)c1ccccc1)C1CCCCC1 | inactive: > 76.9 µM
COC(=O)c1ccc(C2NC(=O)NC(C)=C2C(=O)N(C)C)cc1 (stereo unspecified) | inactive: > 76.9 µM
C/C(=N\O)C(=O)NCCN1CCCCC1 | inactive: > 76.9 µM
O=C(Nc1cnc2sccn2c1=O)c1ccccc1Cl | inactive: > 76.9 µM
COc1ccc(N2CCN(C(=O)c3ccc(C)c(Cl)c3)CC2)cc1 | inactive: > 76.9 µM
CCCc1nnc(NC(=O)C2CCCO2)s1 (stereo unspecified) | inactive: > 76.9 µM
CCOC(=O)N1CCN(C(=O)CCn2c(=S)[nH]c3cc(OCC)c(OCC)cc3c2=O)CC1 | inactive: > 76.9 µM
COc1ccc(CCNC(=O)CSc2nc(O)c(CC(C)C)c(=O)[nH]2)cc1OC | inactive: > 76.9 µM
Cc1ccc(C(=O)N2Cc3ccccc3CC2C(=O)O)cc1 (stereo unspecified) | inactive: > 76.9 µM
CC(C)(C)NC(=O)C1CCC(C)(C(=O)O)C1(C)C (stereo unspecified) | inactive: > 76.9 µM
CCOc1ccccc1NC(=O)Cn1nnc(C(=O)NCc2ccco2)c1N | inactive: > 76.9 µM
CC(C)(C)NC(=O)C(c1ccc(F)cc1)N(Cc1ccco1)C(=O)c1csnn1 (stereo unspecified) | inactive: > 76.9 µM
COc1ccc2nc(COC(=O)c3ccco3)c(C(C)=O)[n+]([O-])c2c1 | inactive: > 76.9 µM
COc1ccc(CNCC(O)COCc2cccs2)cc1 (stereo unspecified) | inactive: > 76.9 µM
c1cnc(N2CCN(c3ncnc4c3oc3ccccc34)CC2)nc1 | active: 5.7 µM

SMILES | Potency
CC1CN(S(=O)(=O)c2ccccc2)CC(C)O1 (stereo unspecified) | inactive: > 76.9 µM
O=C(O)CCCn1nc(C(F)(F)F)c2c1CCCCC2 | inactive: > 76.9 µM
CCCCC(=O)Nc1ncc(Br)s1 | inactive: > 76.9 µM
COCCNC(=O)c1c[nH]c2cc(OC)c(OC)cc2c1=O | inactive: > 76.9 µM
O=C(O)Cc1ccc(NC(=O)c2cccs2)cc1 | inactive: > 76.9 µM
O=C(OC1CCOC1=O)c1ccc2ncsc2c1 (stereo unspecified) | inactive: > 76.9 µM
COc1cccc(C2CC(C(F)(F)F)n3ncc(C(=O)O)c3N2)c1 (stereo unspecified) | inactive: > 76.9 µM
Cc1cccc(NC(=O)COc2ccccc2C)n1 | inactive: > 76.9 µM
O=C(Cc1ccccc1)N1CCC(c2nc3ccccc3[nH]2)CC1 | inactive: > 76.9 µM
O=C1OCCC1Sc1nc2cc(Cl)ccc2s1 (stereo unspecified) | inactive: > 76.9 µM
COC(=O)C1=C(NC(=O)c2cccc(OC)c2)CCS1 | inactive: > 76.9 µM
Clc1ccc(Oc2nc(Oc3ccc(Cl)cc3)nc(N3CCOCC3)n2)cc1 | inactive: > 76.9 µM
CCOc1ccc(C(=O)OCC(=O)NCc2ccco2)cc1OCC | inactive: > 76.9 µM
Cc1cnc(NC(=O)CN2CCN(c3ccccn3)CC2)s1 | inactive: > 76.9 µM
Cc1ccc(-n2nc(C)c3c2OC(N)=C(C#N)C3c2ccoc2)cc1 (stereo unspecified) | inactive: > 76.9 µM
CCCc1cc(N2CCCC(C(=O)NCc3ccc4c(c3)OCO4)C2)n2ncnc2n1 (stereo unspecified) | inactive: > 76.9 µM
CN1CCN(S(=O)(=O)c2ccc(NC(=O)c3cccs3)cc2)CC1 | inactive: > 76.9 µM
O=C(O)c1ccc2[nH]c3c(c2c1)CSCC3 | inactive: > 76.9 µM
Cc1ccc(C)c(N2CCN(C(=O)CCNC(=O)Cn3ccc4ccccc4c3=O)CC2)c1 | inactive: > 76.9 µM
